Laboratory results taken from the supplement of paper PMC3724861.
The list shows a part of the results.

system: T1, Caupolican (Caup) homeodomain DNA-binding domain; test: PBM E-score (8-mer, recovered from the published 9-mer minima) (E-score (dimensionless, -0.5 to 0.5)); Drosophila protein; higher = stronger relative binding preference, active = 0.31 or more
T1 sequence: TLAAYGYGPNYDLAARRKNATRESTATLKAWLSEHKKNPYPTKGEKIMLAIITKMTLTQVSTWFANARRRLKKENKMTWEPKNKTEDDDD
Method in brief: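 Caup's homeodomain DNA-binding domain (residues 214-303) was produced by in vitro transcription and translation and applied at 100 nM to custom-designed protein binding microarrays. Each value is an enrichment score giving relative binding preference for a short DNA word; higher means stronger. Published 9-mer scores were the minimum of their two constituent 8-mer scores, and the 8-mer values were recovered from those minima. A cutoff of 0.31 marks candidate binding sequences.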

PBM E-score, ≥ 0.164:
AATTGCAA

PBM E-score, ≥ 0.00548:
AGAAGTCT

PBM E-score, ≥ -0.175:
AGGGGCCA

PBM E-score, inactive:
ATGGGGAG -0.0709
GGTTTCGA -0.0911
AAAAAGCC -0.128
AGATTGTA 0.179
TATCTAAA 0.126
AAGCGACG -0.114
AACTCAAA 0.132
ATCTGTAG 0.0582
GCCACAGC -0.0857
GCAGTACC 0.0779
CAGGGCAC -0.0544
CGATGGCC -0.186
CTCGACTA 0.0559
AGTAATAG 0.199
TCAGATGA 0.0776
GTAGGTGA -0.00379
CGTAAGCC -0.0966
GTGAGCTA 0.0223
CCCACTAG -0.195
GATAGTAA 0.126
GTCAAAAC 0.0458
AGGCCCGC -0.259
AAAGCCAC -0.14
CACATCGC 0.0231
TGGCCTAA -0.0617
AACCGTCT -0.0458
ATCATCCA 0.0505
CATGAGAC 0.109
CTCTGAAG -0.17
CAAGACCG 0.0146
ACTGCCTC -0.0898
GGCGCATA -0.102
ATATAAAG 0.0656
TGCATCAA 0.0554
AAAAATTG -0.0297
AAAGGACG -0.0381
CTGGAGAC -0.143
TGACTGCA 0.0634
GGGGCGAC -0.158
TCCTGCAA -0.0379
CGTACGCA -0.0196
CGACATAG 0.232
CGTTCTTA 0.0267
CAATGCCA -0.011
ACATCGCC 0.136
AACCATTC -0.0222
AATCAACT 0.132
TAGAAGAA 0.02
CCGAAGTA 0.0559
AGTTTTAT 0.0486
CGCCATAC 0.00396
CAATACAC 0.271
ACCCGAGA -0.114
CGGTGAGA -0.0868
AGACCCGG -0.15
ACTGTGCT 0.0218
CCTACAAA -0.0102
GCACCACC -0.107
ATGTCCCG 0.134
GGGCCTAC -0.155
CACTGGCG -0.0957
CGTCAGAG -0.0167
GCCGTAGC -0.178
AGGCGATA -0.0366
AAACGCTA 0.00553
GACGACAA 0.269
CGGGCTCA -0.153
AAGCATCC -0.0283
TCACGGAA 0.0468
AGCCGCCA -0.213
CTATTAAG -0.0767
CTGACAGA 0.0877
CGGAGACC -0.21
CAATGCAA 0.0824
GTACCTTA 0.0736
GCCTAACA 0.0242
ATTGGAAA 0.0219
AGTAAAAT 0.0149
TATCAATA 0.161
AACCACAC 0.0803
AACGCTGC -0.0702
ATGATACC 0.116
GTGCTCCA -0.0875
ACAAAAGC 0.109
CAAATGTG 0.178
AAGTGAAC 0.0866
AGGGAGAT -0.151
AAGTGTCA 0.0964
GCACACAA 0.0665
GCCACTAA -0.0954
ACTCGGCA -0.0666
GCTCGTAA 0.0735
TCCGGACA 0.0752
TACCTATA 0.121
AATCCAAG 0.048
AAGTAAAA -0.0311
AAAACCTA 0.11
CGCCGCCA -0.218
CCGTACCC -0.149
ACCTCTAT -0.0159
AAGCCGAA -0.0193
GTTTAATA 0.23
AGTTAGGG -0.126
CCCGTTCC -0.113
AAACTTAA 0.0504
GAGTCCCA -0.0935
ATTACGAC 0.147
ACACAAGA 0.229
CCATTAGA -0.131
ATCTAATG 0.118
CACAAACA 0.24
CTACATTA 0.199
AGAACACC 0.194
ATGTTAGG 0.219
GAGATTCC -0.0852
AATCTTCC -0.0859
CCGGACGA -0.0748
CCTTCAGA -0.0253
CACACGCG 0.0165
ACGCAAGG -0.0367
CTACCTCA -0.0438
AGCGCTAG -0.0817
CATGTCCG 0.303
CTCGAATC -0.021
CCCGGGCA -0.225
AGACCGGG -0.179
TACCGGCA 0.0136
CAGTAGGA -0.074
AAATCCTT 0.0194
AGGGTTGA -0.0373
CACCGGTC -0.179
ACCGACTG -0.108
AACAAAAC 0.179
ATAACAGA 0.171
GCCGTGGA -0.204
CATTTATA 0.123
AGAACAAC 0.229
CGACACTA 0.116
AGGGGACG -0.114
CATACCCA 0.0853
AAGCCCTT -0.163
GCGCCCTA -0.273
AGATTTGA 0.0967
AGTCCAAC -0.0836
GGGGTTCA -0.151
AGTCTTGC 0.0593
ATCTTTCA 0.05
GCCCAGAC -0.131
ATAGTGAT 0.108
CCTGAAAA -0.0612
CCGGTCGC -0.246
AAAAAGTG 0.0416
ACAAGCAC 0.246
GTGTACGA 0.226
CGGTCCGA -0.17
AAGTGTAG 0.17
ACTCTTAC 0.16
AGAAGCGC -0.177
AATTGAAG 0.00027
ACTAGGAG 0.0325
GACGCAGC -0.139
AATAGGAG -0.0687
TAGAAAGA -0.00849
AATTTCCG 0.0416
ATATCAGG 0.132
GGGACCCA -0.239
ACCCTCAA -0.0681
CGAGATGC -0.0336
ATCCTTGA -0.0201
GGTGGGAA -0.146
CCTCCGCC -0.233
AATAGCTG 0.0281
CACGCGCA -0.202
ATTTCAAA 0.0885
ACGACTGA 0.0172
CAACTCGA 0.0326
AGTAGGCG -0.0764
CTATAGTA 0.108
TGAAACCA 0.0538
ATTGTCTC 0.0708
CGCCATGA -0.14
GGGATCAA -0.0278
GACGGACA 0.153
GAGAGAGC -0.176
CGGCCGAA -0.108
CTCAAGCC -0.209
CGGTGGAG -0.186
GGTAGCAC -0.172
AGCATACA 0.202
GAATGCGA -0.0148
AGTAGCTA 0.118
CTATCCAG -0.0515
CACAACGC -0.0274
CCTCCCAG -0.242
ATTATTTC 0.109
AGGCCGTG -0.0761
AAGTAATT 0.18
CCCAGCGC -0.298
CATGCGCC -0.0376
CAATCAGC -0.0209
AGTTCATG 0.083
AATTGATG 0.16
ATGACGTC 0.00361
AACCCCTG -0.133
TTCGCAAA 0.0578
ATCTAAAC -0.00073
GCAACGAA 0.0498
AAGGTCTC -0.0943
ACGAACGA 0.0681
AGAATATC 0.00783
AGGAGAAT -0.00131

PBM E-score, active:
TACACGGA 0.375
TATGTACA 0.427
GTGTTACA 0.381

PBM E-score, ≥ 0.158:
AATAAGTA

PBM E-score, ≥ 0.276:
CAAATAAC

PBM E-score, ≥ 0.238:
AACAGGTT

PBM E-score, ≥ 0.0902:
TGGCATAA

PBM E-score, ≥ 0.113:
AAAACGTC
CTGGTTCA

PBM E-score, ≥ 0.125:
GTTTCGGA

PBM E-score, ≥ 0.0192:
AGCCTTAT
